According to article PMC6602471:
The entries are a selection whose mix differs from that of the whole data set. At the low end of the ranking the order means little.

Target: RUNX1 (UniProt Q01196)
Test: custom PBM
Conditions: custom protein-binding microarray; buffer, salt, pH and temperature not stated; high values mean tight binding; double strand, one strand shown

Sequence of UniProt Q01196 (Q01196 whole entry): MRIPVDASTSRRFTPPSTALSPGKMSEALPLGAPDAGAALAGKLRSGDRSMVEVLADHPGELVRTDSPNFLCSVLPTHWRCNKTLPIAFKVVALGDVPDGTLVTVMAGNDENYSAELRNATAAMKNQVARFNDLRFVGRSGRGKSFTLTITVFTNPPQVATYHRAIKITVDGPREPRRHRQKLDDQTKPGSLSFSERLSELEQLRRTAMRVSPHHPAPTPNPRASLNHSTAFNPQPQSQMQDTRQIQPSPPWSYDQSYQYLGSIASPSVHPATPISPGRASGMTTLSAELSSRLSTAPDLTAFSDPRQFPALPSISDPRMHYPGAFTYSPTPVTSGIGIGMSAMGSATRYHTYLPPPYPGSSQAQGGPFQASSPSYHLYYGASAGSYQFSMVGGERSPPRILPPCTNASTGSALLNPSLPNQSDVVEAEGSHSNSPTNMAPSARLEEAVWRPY

Sequence	binding signal (log fluorescence intensity)
GCGCAGATTTCCCGTAAATCATACACGCACACATACACATACACACATACACATACGCAC	10.9
GCGCACATTTACCGTAAATCATACACGCACACATACACATACACACATACACATACGCAC	10.9
CGCGCACTCCGTGGTTGCGCACATACGCACACATACACATACACACATACACATACGCAC	10.9
GCATACGGCTGATGTCAGCCACATACGCACACATACACATACACACATACACATACGCAC	10.9
GCATACGGCTGACGTCAGCGACATACGCACACATACACATACACACATACACATACGCAC	10.8
CGCGCACTCTGTGGTGGCGCACATACGCACACATACACATACACACATACACATACGCAC	11.1
GCGCACACTTCCCGTAAATCATACACGCACACATACACATACACACATACACATACGCAC	10.9
